According to the supplement of paper PMC9588766:
Counter-ions that a name gives are not always drawn. ± gives the standard deviation of the averaged measurements. Whole data set: some 2,000 compounds, median “cell viability relative to DMSO control (compound alone)” near 0.98, cut for the lowest 2% near 0.23. The list shows a part of the results.

Each compound was assayed on PDC-DUC18828 (assay: cell viability relative to DMSO control (compound alone) (fraction); PDC-DUC18828 is a patient-derived cholangiocarcinoma cell line; higher = less growth inhibition). Settings: 1 µM; 72 h.
Procedure: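 Selleck Bioactive library screen in the patient-derived FGFR2-G3BP2 fusion-positive ICC cell line PDC-DUC18828 (500 cells/well). Each compound was tested at 1 uM alone, in triplicate, for 72 h. Viability was read by CellTiter-Glo and normalised to plate DMSO controls.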

SMILES	cell viability
Cc1cc(Nc2cc(CN3CCOCC3)c3nc(C)c(Cc4ccc(Cl)cc4F)n3n2)n[nH]1	0.383 ± 0.0096
CCOC(=O)N[C@@H]1CC[C@@H]2[C@@H](C1)C[C@H]1C(=O)O[C@H](C)[C@H]1[C@H]2/C=C/c1ccc(-c2cccc(F)c2)cn1 [Vorapaxar]	1.03 ± 0.022
CC[C@@]1(O)C(=O)OCc2c1cc1n(c2=O)Cc2cc3c(CN(C)C)c(O)ccc3nc2-1 [Topotecan HCl]	0.0869 ± 0.0071
O=C(NC1CC1)c1cc(-c2cccs2)on1 [Isoxazole 9 (ISX-9)]	0.991 ± 0.015
Oc1cc(O)cc(/C=C/c2ccc(O)c(O)c2)c1 [Piceatannol]	0.896 ± 0.042
Nc1nc(=O)[nH]cc1F [Flucytosine]	0.911 ± 0.027
CN1CCN(c2ccc(Nc3cc(-c4cccc(-n5ccc6cc(C7CC7)cc(F)c6c5=O)c4CO)cn(C)c3=O)nc2)CC1	0.981 ± 0.046
CN(C)C(=O)c1cc2cnc(Nc3ccc(N4CCNCC4)cn3)nc2n1C1CCCC1	1 ± 0.041
C=C1[C@H](CO)[C@@H](O)C[C@@H]1n1cnc2c(=O)[nH]c(N)nc21 [Entecavir Hydrate]	0.947 ± 0.078
CC(=O)O[C@]1(C(C)=O)CC[C@H]2[C@@H]3C=C(C)C4=CC(=O)CC[C@]4(C)[C@H]3CC[C@@]21C [Megestrol Acetate]	0.913 ± 0.055
CN1CCC[C@@H]1Cc1c[nH]c2ccc(CCS(=O)(=O)c3ccccc3)cc12 [Eletriptan HBr]	0.962 ± 0.045
COc1ccccc1Oc1c(NS(=O)(=O)c2ccc(C(C)(C)C)cc2)nc(-c2ncccn2)nc1OCCO [Bosentan]	1.01 ± 0.016
COc1ccccc1Oc1c(NS(=O)(=O)c2ccc(C(C)(C)C)cc2)nc(-c2ncccn2)nc1OCCO [Bosentan Hydrate]	0.99 ± 0.059
COc1cc2c(Oc3ccc(NC(=O)C4(C(=O)Nc5ccc(F)cc5)CC4)cc3F)ccnc2cc1OCCCN1CCOCC1	0.672 ± 0.032
C[S+]([O-])c1ccc(-c2nc(-c3ccc(F)cc3)c(-c3ccncc3)[nH]2)cc1 (stereo not given)	0.995 ± 0.041
CCOc1ccc2ccccc2c1C(=O)N[C@@H]1C(=O)N2[C@@H]1SC(C)(C)[C@@H]2C(=O)O [Nafcillin Sodium]	0.999 ± 0.06
CCN(CC)CCNC(=O)c1cc(Cl)c(N)cc1OC [MetoclopraMide HCl]	0.94 ± 0.059
CC1=NN(c2ccccc2)C(=O)C1 [Edaravone]	0.939 ± 0.034
CO[C@H]1/C=C\C=C(/C)C(=O)NC2=CC(=O)C(NCCN(C)C)=C(C[C@@H](C)C[C@H](OC)[C@H](O)[C@@H](C)/C=C(\C)[C@@H]1OC(N)=O)C2=O [17-DMAG (Alvespimycin) HCl]	0.362 ± 0.028
CCC[C@@H]1C[C@@H](C(=O)N[C@@H]([C@H]2O[C@H](SC)[C@H](O)[C@@H](O)[C@H]2O)[C@H](C)Cl)N(C)C1 [Clindamycin HCl]	1 ± 0.099
CCC[C@@H]1C[C@@H](C(=O)N[C@@H]([C@H]2O[C@H](SC)[C@H](O)[C@@H](O)[C@H]2O)[C@H](C)Cl)N(C)C1 [Clindamycin]	0.9709 ± 0.0049
O=C(N[C@H](CO)[C@H](O)c1ccc([N+](=O)[O-])cc1)C(Cl)Cl [Chloramphenicol]	0.975 ± 0.014
O=C(O)CCNC(=O)c1ccccc1 [Betamipron]	0.966 ± 0.015
C=C1/C(=C\C=C2/CCC[C@]3(C)[C@@H]([C@H](C)CCCC(C)C)CC[C@@H]23)C[C@@H](O)C[C@@H]1O [Alfacalcidol]	1.01 ± 0.015
CCN(CC)CCOC(=O)c1ccc(N)cc1Cl [Chloroprocaine HCl]	1.1 ± 0.038

SMILES	cell viability
Cc1c(-c2ccccc2)oc2c(C(=O)OCCN3CCCCC3)cccc2c1=O [Flavoxate HCl]	0.9893 ± 0.0031
COc1ccc(O)cc1 [Mequinol]	1.11 ± 0.048
CCCCCCOC(=O)NC(=N)c1ccc(NCc2nc3cc(C(=O)N(CCC(=O)OCC)c4ccccn4)ccc3n2C)cc1 [Dabigatran Etexilate]	1 ± 0.049
CN[C@@H]1[C@H](O)[C@H](NC)[C@H]2O[C@@]3(O)C(=O)C[C@@H](C)O[C@H]3O[C@@H]2[C@H]1O [Spectinomycin HCl]	0.981 ± 0.06
NS(=O)(=O)c1cc2c(cc1Cl)NC(C(Cl)Cl)NS2(=O)=O (stereo not given) [Trichlormethiazide]	0.955 ± 0.058
NC(=O)c1cnc(N[C@@H]2CCCC[C@@H]2N)nc1Nc1cccc(-n2nccn2)c1	0.951 ± 0.027
C#Cc1cccc(Nc2ncnc3cc(OCCOC)c(OCCOC)cc23)c1 [Erlotinib HCl (OSI-744)]	0.9322 ± 0.0069
C#Cc1cccc(Nc2ncnc3cc(OCCOC)c(OCCOC)cc23)c1 [Erlotinib]	0.882 ± 0.051
COc1ccc(Cn2ccc3ccc(C(=O)NO)cc32)cc1	0.944 ± 0.044
CC#CC(=O)N1CC[C@@H](n2c(=O)n(-c3ccc(Oc4ccccc4)cc3)c3c(N)ncnc32)C1	0.983 ± 0.058
Cc1onc(-c2ccccc2Cl)c1C(=O)N[C@@H]1C(=O)N2[C@@H]1SC(C)(C)[C@@H]2C(=O)O [Cloxacillin Sodium]	1 ± 0.074
CCc1c2c(nc3ccc(O)cc13)-c1cc3c(c(=O)n1C2)COC(=O)[C@]3(O)CC	0.118 ± 0.0061
Cc1nn(-c2ccccc2)c(C)c1C=NN1CCN(Cc2ccccc2)CC1	1.04 ± 0.071
CC(C)C(=O)Oc1ccc(CO)cc1[C@H](CCN(C(C)C)C(C)C)c1ccccc1 [Fesoterodine Fumarate]	1.07 ± 0.046
Cc1ccc(NC(=O)c2ccc(CN3CCN(C)CC3)cc2)cc1Nc1nccc(-c2cccnc2)n1 [Imatinib (STI571)]	1.02 ± 0.03
Cc1ccc(NC(=O)c2ccc(CN3CCN(C)CC3)cc2)cc1Nc1nccc(-c2cccnc2)n1 [Imatinib Mesylate (STI571)]	1.05 ± 0.016
O=C(O)C(=O)O.[NH-][C@@H]1CCCC[C@H]1[NH-].[Pt+2] [Oxaliplatin]	0.952 ± 0.041
O=C(NCC1(c2nc(-c3ccccc3)cs2)CCOCC1)c1cccc(-c2noc(C(F)(F)F)n2)c1	0.992 ± 0.073
Cc1c(C(=O)NN2CCCCC2)nn(-c2ccc(Cl)cc2Cl)c1-c1ccc(Cl)cc1 [Rimonabant]	0.959 ± 0.054
C[C@H]1c2cccc(O)c2C(=O)C2=C(O)[C@]3(O)C(=O)C(C(N)=O)=C(O)[C@@H](N(C)C)[C@@H]3[C@@H](O)[C@@H]21 [Doxycycline Hyclate]	0.959 ± 0.058
COc1cc2c(cc1OC)CC(=O)N(CCCN(C)C[C@H]1Cc3cc(OC)c(OC)cc31)CC2 [Ivabradine HCl]	1.08 ± 0.031
COc1cc(C(=O)N2CCC(N3CCN(C)CC3)CC2)ccc1Nc1ncc2c(n1)N(C)c1ccccc1C(=O)N2C	0.977 ± 0.061
Clc1ccc(C(Cn2ccnc2)OCc2ccsc2Cl)c(Cl)c1 (stereo not given) [Tioconazole]	1.03 ± 0.033
CCOC(=O)c1cnc2ccc(-c3cncc(NS(=O)(=O)c4ccccc4)c3)cn12	0.459 ± 0.047
C[C@@H](Nc1cc(F)cc(F)c1)c1cc(C(=O)N(C)C)cc2c(=O)cc(N3CCOCC3)oc12	0.783 ± 0.046

SMILES	cell viability
CC(C)(OCc1nn(Cc2ccccc2)c2ccccc12)C(=O)O [Bindarit]	0.944 ± 0.041
CCCN1CCCC[C@H]1C(=O)Nc1c(C)cccc1C [Ropivacaine HCl]	1.07 ± 0.049
CC(NC(=O)c1ccccc1/N=C/c1c(O)ccc2ccccc12)c1ccccc1 (stereo not given) [Sirtinol]	1.09 ± 0.047
Cc1cccc(-c2[nH]c(C(C)(C)C)nc2-c2ccc3c(c2)OCO3)n1	0.998 ± 0.055
CN1CC(=O)N2[C@H](c3ccc4c(c3)OCO4)c3[nH]c4ccccc4c3C[C@@H]2C1=O [Tadalafil]	1.12 ± 0.021
CCN(C(=O)c1c(O)c2c(Cl)cccc2n(C)c1=O)c1ccccc1 [Laquinimod]	0.982 ± 0.078
Cc1c(C(=O)NN2CCCCC2)nn(-c2ccc(Cl)cc2Cl)c1-c1ccc(I)cc1	0.954 ± 0.02
CCc1nc(N)nc(N)c1-c1ccc(Cl)cc1 [Pyrimethamine]	0.978 ± 0.05
CC(C)NCC(O)COc1ccc(CCOCC2CC2)cc1 (stereo not given) [Betaxolol]	1.01 ± 0.026
CCOc1nc2cccc(C(=O)OCc3oc(=O)oc3C)c2n1Cc1ccc(-c2ccccc2-c2noc(=O)[nH]2)cc1 [Azilsartan Medoxomil]	0.948 ± 0.03
COc1cc(OC2CCN(C)CC2)ccc1Nc1ncc2c(n1)n(C1CCCC1)c(=O)n2C	1.02 ± 0.038
C#CCN[C@@H]1CCc2ccccc21 [Rasagiline Mesylate]	1.06 ± 0.024
COc1ccc(NS(=O)(=O)c2sc3ccc(Cl)cc3c2C)cc1N1CCNCC1	0.991 ± 0.018
Nc1ccn([C@H]2CC[C@@H](CO)O2)c(=O)n1 [Zalcitabine]	0.963 ± 0.045
CCc1cc(Nc2nccc(-c3c(-c4ccc(OC)c(C(=O)Nc5c(F)cccc5F)c4)nc4ccccn34)n2)c(OC)cc1N1CCC(N2CCN(S(C)(=O)=O)CC2)CC1	1.05 ± 0.038
CN(C)CCOC(C)(c1ccccc1)c1ccccn1 (stereo not given) [Doxylamine Succinate]	0.984 ± 0.041
C=CCNC(N)=S [Allylthiourea]	1.04 ± 0.065
CNC(=O)c1cccc(-c2ccc3c(N4CCOC[C@@H]4C)nc(N4CCOC[C@@H]4C)nc3n2)c1	0.289 ± 0.0052
COc1cccc(-c2cc(=O)c3ccccc3o2)c1N	1.04 ± 0.038
CC(C)(C#N)c1cc(Cn2cncn2)cc(C(C)(C)C#N)c1 [Anastrozole]	0.917 ± 0.043
COc1cc2nccc(Oc3ccc(NC(=O)Nc4cc(C)on4)c(Cl)c3)c2cc1OC [Tivozanib (AV-951)]	0.811 ± 0.013
C[C@@H](O)[C@H]1C(=O)N2C(C(=O)O)=C(S[C@@H]3CN[C@H](CNS(N)(=O)=O)C3)[C@H](C)[C@H]12 [Doripenem Hydrate]	1.05 ± 0.059
COc1cccc(-n2c(=O)[nH]c3cc(Cl)n(-c4ccc(-c5cccc(OC)c5O)cc4)c3c2=O)c1	0.952 ± 0.034
CN(CC(=O)N(Cc1ccc(C2CCCCC2)cc1)c1ccc(C(=O)O)cc1)S(=O)(=O)c1c(F)c(F)c(F)c(F)c1F	0.9 ± 0.12
OC(CNCC(O)C1CCc2cc(F)ccc2O1)C1CCc2cc(F)ccc2O1 (stereo not given) [Nebivolol]	1.04 ± 0.026
